± gives the standard deviation of the averaged measurements. This is one part of the list.
system: PfAP2-LT AP2 domain (GST-tagged); experiment: gcPBM binding intensity (ln(normalized median fluorescence intensity)); higher = stronger DNA binding
Outline: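 GST-fused DNA-binding domains of P. falciparum, expressed in E. coli, were applied at about 25 μg on average for 1 h to an Agilent 4 × 180k array of primer-extended double-stranded 36-bp intergenic genomic probes and negative controls. Binding intensity is the highest Masliner-normalised natural-log median intensity across replicate spots of either probe orientation, measured with Alexa488 anti-GST antibody and a 488 nm scan.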

Row | Sequence | gcPBM binding intensity (ln)
1 | CTTATTATTATATGGGTGCTCATATTTTTCTTTTTT [GTGCAC_site9723] | 8.87 ± 0.48
2 | ACAAACATTAGGGAAGCATGCAATATTTTTTTACAT [TGCATGCA_site372] | 8.97 ± 0.37
3 | TGTAGATTTTGTAACACACACATATATATACATATA [CACACA_site2405] | 9.13 ± 0.46
4 | ATTCTTATTTAAAGGTGTACTCTTAAACAGATTTTA [XGTACX_site3526] | 8.52 ± 0.37
5 | CACCCCCACAGACACACACACACACCCACATATATA [CACACA_site365] | 10.54 ± 0.035
6 | ATTTTAATATAAAATACACACTACTATTATAAATAT [CACACA_site4917] | 8.61 ± 0.4
7 | GTACACATATAGTAATAATTTTATTATATTTTTTTG [CACACA_negctrl_site843] | 8.56 ± 0.47
8 | GGTCTTCTTAATATACTGCACTGTATACGTATATAA | 9.09 ± 0.4
9 | AGATTTAAATTTATATGTACATAATATGGGCGTATA [XGTACX_site6631] | 8.7 ± 0.39
10 | TTCATAAAATGATATTGTACAAATAAATAATAGTAT [XGTACX_site819] | 8.89 ± 0.46
11 | GCTTATATAAAAAGTTGTACAACCGAATCTTTTACA [XGTACX_site2119] | 8.74 ± 0.45
12 | AAAAAAAAAAAGCACACACACATATGAGTATATATA [CACACA_site4683] | 9.55 ± 0.27
13 | TAATATCATTTATGTAGTACTATAACAAGAACTATA [XGTACX_site3618] | 8.48 ± 0.37
14 | AATGTAAAAGTAAACACACACATATATAAATACATA [CACACA_site5386] | 9.46 ± 0.3
15 | TACACAAGCAGACACACACACATATATATATATATA [CACACA_site1270] | 10.42 ± 0.071
16 | GTACATAGATTGTACATACACACCTATATAAATATC [CACACA_site3225] | 9.13 ± 0.39
17 | AATATATGGTTCCATGATATTAAATTCAATTTAATG [CACACA_negctrl_site605] | 8.47 ± 0.35
18 | TTTTTTTTGTTCTATACAATTATAAAAATAAAATAT [XGTACX_negctrl_site53] | 8.19 ± 0.34
19 | GTATATATATATGTATATATTTTATTTTATTTTTAT [CACACA_negctrl_site1439] | 8.71 ± 0.45
20 | TATATATATAGACACACACACACATATATATATATA [CACACA_site9366] | 10.02 ± 0.042
21 | AGTTGTTTTAATAATGCATGTTATTTTATTTTAATA [TGCATGCA_site168] | 8.79 ± 0.45
22 | TAGATATATAGACACACACACATTAATACCTATATT [CACACA_site7605] | 9.64 ± 0.42
23 | TGTCATTTAATTTTTTGTACGAAAAAAACATATAAA [XGTACX_site4952] | 8.28 ± 0.3

Row | Sequence | gcPBM binding intensity (ln)
24 | ACATATAATATATAATGTACAAAATTGTTAACAATA [XGTACX_site3798] | 8.96 ± 0.4
25 | GAAAGGATATATATATATATATATATAATACATTTC [GTGCAC_negctrl_site677] | 9.28 ± 0.47
26 | TATATATACATACATACACACATATATATATATATT [CACACA_site4110] | 9.295 ± 0.078
27 | AATTAAAAAAAATACACACACACATACACATATATA [CACACA_site3298] | 9.94 ± 0.24
28 | CCAAAAAAAAAAAAAAGTACATAAAAACAAGAGAAT [XGTACX_site3037] | 8.94 ± 0.54
29 | CGTATTTATATAATTACACACCATATTATAATTATT [CACACA_site3760] | 8.84 ± 0.44
30 | AAGAGAAAAATATATACACACACATAAATATATACA [CACACA_site8573] | 9.57 ± 0.32
31 | AAGGGGTAAAGAAAAACACACAAAAAATAAAAATAT [CACACA_site361] | 9.04 ± 0.67
32 | GATGAAAATAGAAATACACACTAAAAAATAAAATTA [CACACA_site4764] | 8.85 ± 0.52
33 | GAAATAATTCGATGTGCATGTAACGTTTCCCCAAAG [TGCATGCA_site122] | 8.93 ± 0.3
34 | TGCATACTTTTGTAAGTGCATAAAATCGTACCATGC | 8.63 ± 0.26
35 | TTATTTTTCCGGAATAGTACATAGACGCAGATATAA [XGTACX_site6356] | 8.78 ± 0.38
36 | TAGAAGCATGGACACACACACATACATACCCATACA [CACACA_site4916] | 10 ± 0.45
37 | CTCAATGTTTGCGATACATGCAAAAATTTTTAGAAT [TGCATGCA_site165] | 8.64 ± 0.47
38 | TACATTTCATTGTAATCATAAAAAATAAAGAAAAAA [XGTACX_negctrl_site542] | 8.27 ± 0.42
39 | TCTATATCTTTCAACACACAAATTTTTTTTTCCATC [CACACA_site4238] | 8.78 ± 0.52
40 | AAAAAAAAAAAAAAAGTGCACAGTCGTTTTAAAAAA [GTGCAC_site9848] | 8.62 ± 0.7
41 | ATTAACTATCATAACACACACAGTAGACATATTTTT [CACACA_site1822] | 9.35 ± 0.29
42 | AAATCATTTAAGAACACACAAATATTTCCATTAAAT [CACACA_site6808] | 8.72 ± 0.51
43 | ATGCAAAGTTTATAAAGTACATAAGTCAAAATAAAA [XGTACX_site1441] | 8.85 ± 0.46
44 | CTTTTCTCCCTCCATAGTACAATTATAAAAATATAT [XGTACX_site3090] | 8.53 ± 0.36
45 | AAGATAATATTTTCTTGTACGCATGCACATACAAAT [XGTACX_site7181] | 8.88 ± 0.31
46 | ATATAATATTTATATGCACACTTTTCTATATATAAG [CACACA_site6100] | 8.81 ± 0.33

Row | Sequence | gcPBM binding intensity (ln)
47 | TAAAATATTATTTATTTACACACCAATCTTCTTTTC [CACACA_site9320] | 8.73 ± 0.47
48 | TCGTATTTAAAATGTAGTACATAATTTGAAAAATAA [XGTACX_site5832] | 8.43 ± 0.43
49 | TAATGGTTATCACTAACATGCAGTAATATTATATAG [TGCATGCA_site176] | 8.64 ± 0.36
50 | TTTTTTCTTTTTTTTTGTACATATAATATTTATGTT [XGTACX_site302] | 8.76 ± 0.46
51 | ATATATATATGTATATGTACATATATATGGTAACTC [XGTACX_site681] | 9.12 ± 0.4
52 | AAAAGAAAAAAAAAAAAAAAAAAAATTAAAATATAA [CACACA_negctrl_site17] | 8.19 ± 0.69
53 | AAAAAAAAAAAACACACACACAAATACAAATGGTAA [CACACA_site1720] | 9.92 ± 0.42
54 | AATACATATCAAAGCTGTACAAAGTAAATTTTACTT [XGTACX_site3525] | 8.83 ± 0.44
55 | AAGTTATTGATATATACACACAAATATAAATAATAT [CACACA_site6695] | 9.04 ± 0.42
56 | TTCAATAGGTATAATTGTACTTAATAATATATTGTT [XGTACX_site8363] | 8.61 ± 0.54
57 | TACTATTATAAATATGTGCACTTCAATAATATACTA | 8.77 ± 0.43
58 | CTTAGGTTAAAAGTGTGTACATAAAAACATATATAA [XGTACX_site2213] | 8.99 ± 0.46
59 | ATAAGAAAAAGACACACACACAAAAAAAAAAAAAAA [CACACA_site2828] | 9.26 ± 0.37
60 | TAAATAAATTATTTTCGTACTTATTTATTTTAATTA [XGTACX_site283] | 8.55 ± 0.45
61 | TTAAAGTAGAGAAAATGTACATTTTATTAACACAAT [XGTACX_site6369] | 8.86 ± 0.5
62 | AAATAAAAAACAGTGGCACACATTATGTATCCACCT [CACACA_site3756] | 8.98 ± 0.49
63 | AAAAAAAAAATATACACACACATATAAATATAAATA [CACACA_site7574] | 9.34 ± 0.42
64 | ATACATTCAATGAAATGTACGTTTATTTACAGAAGA [XGTACX_site2999] | 8.67 ± 0.41
65 | TACAGATACAGATACACACACACACCGAAATAAATA [CACACA_site4865] | 10.2 ± 0.43
66 | CTTTAAGTTATATGAAGTACAATTTAAAAAAATGAA [XGTACX_site358] | 8.37 ± 0.4
67 | TAAATTCCTACATACGCATGTACATTAAAATTTTAA [TGCATGCA_site215] | 8.87 ± 0.36
68 | AAAATAAAAAGAAAAAGAAAAAAGGGGGGGTAGGGG [CACACA_negctrl_site1048] | 9.88 ± 0.11
69 | TGTCATATTATAAATTGTACAAATAGTATAATTATT [XGTACX_site581] | 8.68 ± 0.4

Row | Sequence | gcPBM binding intensity (ln)
70 | ATTTTATCTTTAAACTGTACGTATTAATATGTAGAA [XGTACX_site3077] | 8.55 ± 0.38
71 | AGTATACATATATATACACACATATATATATATATA [CACACA_site300] | 9.83 ± 0.34
72 | ATAAAAATATTATAAGCACACATATATATATATATA [CACACA_site8781] | 9.59 ± 0.3
73 | TGTGTATTTATAAATACACACCAAATGTTAATATAT [CACACA_site6904] | 8.87 ± 0.31
74 | GTAAAATGATATAAATGTACATAATATATATATGTC [XGTACX_site4049] | 8.99 ± 0.45
75 | AATTTTTTTTTTAGACGTACAAGAAAAAACAAAAAA [XGTACX_site4990] | 8.41 ± 0.4
76 | TATATGAAGTACACAATACACACTAATTATATATAA [CACACA_site2608] | 9.02 ± 0.4
77 | AACTATAAAAATTTTACACACTGTTTTTAAATAATG [CACACA_site5928] | 8.72 ± 0.42
78 | TTATGCCTTTAATATACACACTAATATTTTTTTGGC [CACACA_site5171] | 8.79 ± 0.42
79 | TATGAAATTATAATTACACACAGGAAAATAAAATGT [CACACA_site1517] | 9.09 ± 0.4
80 | ATATAATAATAAGGCACACAAATTAAAATATAAAAA [CACACA_site3710] | 8.93 ± 0.52
81 | TTATGTTCTTTAAAACCACACACCCCCCAACCCCCC [CACACA_site8742] | 9.88 ± 0.23
82 | AATGTTTTATTTTGAAGTACATTTAAGAATTTTTTA [XGTACX_site7814] | 8.27 ± 0.56
83 | TATATATGCATATACATACACACATAACACATACGT [CACACA_site3833] | 9.27 ± 0.33
84 | ATATAGATGCATAATACACACATCAGATAATTAACC [CACACA_site6871] | 9.25 ± 0.34
85 | ATAAAAATTGATTATACACACGCGCCCAGACAACAA [CACACA_site5870] | 9.31 ± 0.35
86 | TTTTTTTTTTTTTTTTGTACTCATATCTACTATCAT [XGTACX_site274] | 8.67 ± 0.48
87 | ACAAGGTTTACGGGTAGTACAAATTTTTGAACATCT [XGTACX_site4739] | 8.65 ± 0.51
88 | AGCCAAACCTTAAATTTAGCAATAAGTTTACAGGTC [CACACA_negctrl_site360] | 8.68 ± 0.42
89 | ATTAAAAGTTTATACAAATAAAAAACAAAACAAAAA [CACACA_negctrl_site1030] | 8.78 ± 0.54
